# The other results are listed elsewhere or left out. Single values are uncertain, as repeats are few or missing.
# Experiments:
# Test in all cases: cell count relative to DMSO control; melanoma cells; higher = more viable cells
# Settings in all cases: library dose: standard library concentration; 72 h
# [1] = test system: G361
# [2] = test system: IPC-298
# [3] = test system: IST-MEL1
# [4] = test system: LB2518-MEL
# [5] = test system: LOXIMVI
# [6] = test system: MEL-HO
# [7] = test system: MZ2-MEL
# [8] = test system: MeWo
# [9] = test system: RPMI7951
# [10] = test system: RVH-421
# [11] = test system: SkMel28
# [12] = test system: SkMel2
# [13] = test system: SkMel30
# [14] = test system: SkMel5
# [15] = test system: UACC257
# [16] = test system: UACC62
# [17] = test system: WM115
# [18] = test system: WM1716
# [19] = test system: WM1745
# [20] = test system: WM3526
# 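Also: cells treated in 1,536-well plates, then fixed and DAPI-stained, with nuclei counted from automated high-throughput microscope images.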
SMILES,cell count [1],cell count [2],cell count [3],cell count [4],cell count [5],cell count [6],cell count [7],cell count [8],cell count [9],cell count [10],cell count [11],cell count [12],cell count [13],cell count [14],cell count [15],cell count [16],cell count [17],cell count [18],cell count [19],cell count [20]
"O=c1[nH]nc(Sc2ncc([N+](=O)[O-])s2)n1-c1ccc2c(c1)OCCO2 + Cc1cc(N2CCOCC2)cc2[nH]c(-c3c(NC[C@@H](O)c4cccc(Cl)c4)cc[nH]c3=O)nc12 [BMS536924] (first compound 1 µM, partner dose 1 µM)",91.3%,100%,114%,77.8%,107%,96.9%,124%,75%,83.4%,111%,103%,106%,84.7%,85%,96.9%,95.7%,96.7%,107%,60.5%,89.1%
"COc1cc(Nc2ncc(F)c(Nc3ccc4c(n3)NC(=O)C(C)(C)O4)n2)cc(OC)c1OC [Tamatinib] + Oc1cc(-c2nc(-c3ccccc3)[nH]c2-c2ccncc2)ccc1Cl [L779450] (first compound 2 µM, partner dose 1 µM)",47.1%,58.4%,43.2%,65.2%,7.46%,61%,64.9%,57.3%,14.2%,73.4%,48.5%,7.57%,89.2%,44.8%,91.1%,50.5%,26.7%,44.4%,17.6%,48.1%
"O=C(Nc1cccc(Cl)c1)Nc1ncc(CCNc2ncnc3ccsc23)s1 + CCCCCCCCCCCC1=C(O)C(=O)C=C(O)C1=O [Embelin] (first compound 0.004 µM, partner dose 6 µM)",75%,78.8%,36.6%,88.6%,87.1%,65.7%,55.4%,61.5%,67.5%,29.9%,67.9%,86.8%,83.8%,95.4%,58.3%,100%,46.4%,52.9%,75.5%,77.4%
"O=c1[nH]nc(Sc2ncc([N+](=O)[O-])s2)n1-c1ccc2c(c1)OCCO2 + COc1ccc(Cl)c(Nc2nc3ccccc3nc2NS(=O)(=O)c2cccc(NC(=O)C(C)(C)N)c2)c1 [XL147] (first compound 1 µM, partner dose 4 µM)",87.4%,75.3%,64.4%,77.2%,104%,82.9%,80.6%,91.5%,83.9%,106%,87.4%,94.8%,75.8%,111%,83.3%,120%,87.2%,93.6%,79.7%,84.2%
"O=c1[nH]nc(Sc2ncc([N+](=O)[O-])s2)n1-c1ccc2c(c1)OCCO2 + C=CCNC1=C2C[C@@H](C)C[C@H](OC)[C@H](O)[C@@H](C)/C=C(\C)[C@H](OC(N)=O)[C@@H](OC)/C=C\C=C(/C)C(=O)NC(=CC1=O)C2=O [Tanespimycin] (first compound 1 µM, partner dose 0.01 µM)",74%,88.8%,70.5%,79.4%,103%,72.7%,96.1%,63.9%,24.8%,72.9%,58.3%,82.3%,102%,85.5%,97.7%,53.2%,24.4%,66.3%,67.1%,77.9%
"O=c1[nH]nc(Sc2ncc([N+](=O)[O-])s2)n1-c1ccc2c(c1)OCCO2 + CN(NC(=O)CC(=O)NN(C)C(=S)c1ccccc1)C(=S)c1ccccc1 [STA4783] (first compound 1 µM, partner dose 0.03 µM)",44.4%,68.6%,84.3%,20.8%,86.8%,75.2%,110%,11.5%,60.7%,31.8%,26.5%,60.5%,81.5%,59.2%,91%,25%,9.62%,90.4%,27.8%,89.7%
"O=C(Nc1cccc(Cl)c1)Nc1ncc(CCNc2ncnc3ccsc23)s1 + COc1cc2ncnc(Nc3ccc(Oc4ccccc4)cc3)c2cc1OC [SrcI1] (first compound 0.004 µM, partner dose 10 µM)",43%,42.8%,56.9%,87%,88%,62.8%,50.2%,53.2%,38%,79%,43.9%,60.4%,86.9%,50.5%,61.2%,70.6%,48.6%,53%,75.5%,48%
"C[C@@H]1CCN(C(=O)CC#N)C[C@@H]1N(C)c1ncnc2[nH]ccc12 + CN(C)S(=O)(=O)c1ccc2c(c1)/C(=C/c1cc3c([nH]1)CCCC3)C(=O)N2 [SU6656] (first compound 5 µM, partner dose 2 µM)",62.6%,69.7%,78.5%,89.1%,88.9%,81.2%,84.5%,77%,48.4%,66.1%,50.3%,77.7%,79.6%,72.5%,93.8%,91.9%,53.3%,74%,61.4%,75.3%

# Source: the supplement of paper PMC4604168 (melanoma cell lines)
